Source: PubChem BioAssay AID485344 (National Center for Advancing Translational Sciences (NCATS), 2010)
Among all 340,000 compounds or so, about 6,900 (2%) were called active. No stated cut-off is given here; in the data, active means inhibition above about 30%; inactive means below that, where a call was filed. This is a selection; strong and weak results do not stand in their true shares. Entries without a call were filed so in the source.
Further: 0% is about no effect.

The compounds below were run against D(2) dopamine receptor (Homo sapiens) (UniProt P14416) (assay: HTS Assay for Allosteric Antagonists of the Human D2 Dopamine Receptor: Primary Screen for Antagonists). Details: HEK293 TREx D2 cells, calcium flux, dopamine EC80; at 10 µM; stronger effect = higher value.
Chain of UniProt P14416 (P14416 whole entry, looked up): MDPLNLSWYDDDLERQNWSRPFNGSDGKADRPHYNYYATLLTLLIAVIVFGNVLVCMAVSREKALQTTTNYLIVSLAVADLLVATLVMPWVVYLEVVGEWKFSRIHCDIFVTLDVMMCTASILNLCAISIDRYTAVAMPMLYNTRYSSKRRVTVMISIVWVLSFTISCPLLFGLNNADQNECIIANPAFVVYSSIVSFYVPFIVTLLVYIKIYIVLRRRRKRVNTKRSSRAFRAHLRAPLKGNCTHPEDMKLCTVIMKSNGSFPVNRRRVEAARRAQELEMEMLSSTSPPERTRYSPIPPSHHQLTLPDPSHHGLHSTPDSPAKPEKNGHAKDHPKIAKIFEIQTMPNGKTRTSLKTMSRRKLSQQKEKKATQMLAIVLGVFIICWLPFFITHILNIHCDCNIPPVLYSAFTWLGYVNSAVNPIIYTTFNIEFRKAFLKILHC
Method in brief: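 Cells plated overnight at 30 C with tetracycline; no-wash calcium dye, 30–90 min RT; 10 s baseline; compound pinned; 180 s read; EC80 dopamine added; another 180 s read.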
In the case of `CCOC(=O)C1CCCN(Cc2ccc(-c3ccccc3)cc2)C1` (configuration not stated), the inhibition was active: 57.9%. For `COc1ccc2c(c1)-c1nc(NC(=O)c3cc(Cl)ccc3OC)sc1CC2`, the inhibition was -7.18%. With `CCCCCn1cnc2c(=S)nc(N)[nH]c21` the inhibition was active: 48.6%. `Cc1cc(OC(=O)c2cc(-c3ccc4c(c3)OCCO4)on2)ccc1Cl` showed an inhibition of 13.6%. For `COc1ccccc1CNC(=O)CCn1c(=O)c2ccccc2n(CC(=O)Nc2ccc(C)cc2C)c1=O`, the inhibition was 8.33%. `CN1c2ccccc2-c2nc(SCC(=O)Nc3ccccc3C(F)(F)F)ncc2S1(=O)=O` showed an inhibition of -4.41%. `CC(=O)c1c(C)oc2ccc(N(C(=O)Oc3ccccc3)S(=O)(=O)c3ccc(C(C)(C)C)cc3)cc12` gave an inhibition of -2.22%. `CCc1cccc(C)c1NC(=O)c1cc(C)nc2c1c(C)nn2-c1cccc(Cl)c1C` gave an inhibition of 16.8%. `COc1ccc(C)cc1NC(=O)CN(c1cc(C(F)(F)F)ccc1Cl)S(C)(=O)=O` showed an inhibition of 15%. In the case of `COc1cc(NC(=O)c2cc(Cl)c(OC)c(Cl)c2)ccc1NC(=O)c1cc2ccccc2o1`, the inhibition was 5.61%. `COC(=O)c1cc(NC(=O)Cn2nc(C)n3cccc3c2=O)cc(C(=O)OC)c1` was tested, and the inhibition was -20.5%. `Cc1ccc(-c2c(C(=O)NCc3ccccc3)oc(=O)c3ccccc23)cc1` showed an inhibition of -5.36%. `CCOC(=O)C1=C(CS(=O)(=O)c2ccc(Br)cc2)NC(=O)NC1c1ccccc1` (configuration not stated) gave an inhibition of 1.3%. `Cc1ccccc1CNC(=O)c1ccc(-c2nc(CS(=O)(=O)c3ccccc3)c(C)o2)cc1` was tested, and the inhibition was 4.41%. Work on `CCCCN(C)C(=O)C(Cc1ccccc1)NS(=O)(=O)c1ccc2c(c1)c(=O)n(C)c(=O)n2C` (configuration not stated) yielded an inhibition of 1.14%. For `COc1ccc(-c2nnc(SCC(=O)Oc3c(C)cccc3C)o2)cc1OC`, the inhibition was 18.1%. Compound `Cc1oc(-c2cccc(Cl)c2)nc1CN1CCCC(C(=O)NCc2ccc(F)cc2)C1` (configuration not stated) has an inhibition of 11.7%. `CC(C)OCCCNC(=O)c1ccc2c(=O)n(CCc3ccccc3)c(=O)[nH]c2c1` gave an inhibition of 11.5%. `C=CCc1cccc2cc(C(=O)Nc3cccc(Cl)c3)c(=O)oc12` gave an inhibition of 3.45%. In the case of `CCOC(=O)c1sc2ccccc2c1S(=O)(=O)Nc1cccc(C(F)(F)F)c1`, the inhibition was 2.31%. Work on `Cc1cccc(C(=O)NCCc2sc(-c3ccccc3)nc2C)c1` yielded an inhibition of 21.3%. In the case of `Cc1cn(C)c(CC(=O)Nc2cccc(Cl)c2C)c1C(=O)O`, the inhibition was 26.1%. `CCc1ccc(NC(=O)c2ccc(F)c(S(=O)(=O)N3CCC(C)CC3)c2)cc1` showed an inhibition of 9.01%. For `Cc1ccc(C)c(Cn2nnc(C(=O)NCc3ccc(Cl)cc3Cl)c2N)c1`, the inhibition was -7.93%. Compound `COc1cc2c(cc1NS(=O)(=O)c1cccc(C#N)c1)n(C)c(=O)n2C` has an inhibition of -11.6%. In the case of `Cc1cc(C)cc(NC(=O)CN2C(=O)c3ccccc3Sc3ccc(C(=O)N4CCOCC4)cc32)c1`, the inhibition was 5.05%. With `COc1ccc(N(CC(=O)NCc2ccc(F)cc2)S(=O)(=O)c2c(C)n[nH]c2C)cc1` the inhibition was -5.81%. `COc1ccc(OCCCn2c(=O)oc3ccc(C)cc32)cc1` showed an inhibition of 8.73%. `CCOc1ccccc1C(=O)Nc1c(NC)c2ccccc2oc1=O` showed an inhibition of -0.0046%. `O=C(NCc1cccc(F)c1)C1=Cc2cc(Br)ccc2OC1` gave an inhibition of -17.8%. With `Cc1ccc(-n2ccnc(NCc3ccccc3)c2=O)cc1C` the inhibition was 7.95%. Compound `O=C(Nc1cc(C(F)(F)F)ccc1Cl)c1cc2nc(-c3ccc4c(c3)OCO4)cc(C(F)(F)F)n2n1` has an inhibition of -4.26%. Work on `Cn1c(=O)oc2cc(S(=O)(=O)N3CCCC(C(=O)Nc4ccc(Br)cc4F)C3)ccc21` (configuration not stated) yielded an inhibition of 11.1%. In the case of `CCc1ccccc1NC(=O)CN1C(=O)CCc2cc(S(=O)(=O)N3CCCCC3)ccc21`, the inhibition was 7.75%. In the case of `Cc1ccc(SCCOCCN2CCc3ccccc3C2)cc1`, the inhibition was active: 75%. Work on `Cc1ccc(CNC(=O)c2ccc(CSCc3ccc(Cl)cc3)o2)cc1` yielded an inhibition of 18.6%. With `O=C(/C=C/c1ccco1)NCCc1ccccc1` the inhibition was active: 31.7%. For `CCCCNS(=O)(=O)c1ccc2nc(NC(=O)c3cccnc3)sc2c1`, the inhibition was 2.58%. `COc1ccc(N2CC(NC(=O)c3ccc(S(=O)(=O)N4CCCC4)cc3)CC2=O)cc1` (configuration not stated) was tested, and the inhibition was 11.6%. For `CCOC(=O)c1ccc(NC(=O)C(CC)Sc2nc3ncccc3[nH]2)cc1` (configuration not stated), the inhibition was -11.2%. For `COc1ccc(-n2nc(C(=O)N3CCN(c4ccccc4OC)CC3)c3c4ccccc4n(C)c3c2=O)cc1`, the inhibition was -5.87%. `c1ccc(SCCOCCN2CCc3ccccc3C2)cc1` was tested, and the inhibition was active: 75%. `COc1cccc(N2CC(NC(=O)/C=C\c3ccc4c(c3)OCO4)CC2=O)c1` (configuration not stated) gave an inhibition of 5.58%. With `CCC(Sc1nnc(-c2ccc(OC)cc2)c(-c2ccc(OC)cc2)n1)C(=O)NC1CCCCC1` (configuration not stated) the inhibition was 8.23%. Work on `CCn1c(C(=O)N2CCC(C(=O)NCCc3ccccc3)CC2)cc2sccc21` yielded an inhibition of 3.85%. `Cc1ccc(-n2c3nc(=O)n(C)c(=O)c-3cc3c(Cl)cccc32)c(C)c1` showed an inhibition of 1.86%. Work on `Cc1ccc(NS(=O)(=O)c2ccc(NC(=O)N3CCCC3)cc2)cc1C` yielded an inhibition of 7.42%. In the case of `CC1CCCN(S(=O)(=O)c2ccc(NC(=O)c3nc(SC(C)C)ncc3Cl)cc2)C1` (configuration not stated), the inhibition was 20%. Work on `CCCCN(Cc1ccccc1)C(=O)c1oc(=O)c2ccccc2c1-c1ccc(C)cc1` yielded an inhibition of -5%. Compound `COc1ccccc1/C=C/c1nc(C#N)c(N2CCCCCC2)o1` has an inhibition of -2.14%. For `O=C(CSc1nc(-c2ccccc2)nc2c1CCCC2)c1ccc(F)cc1`, the inhibition was 5.18%. Work on `Cc1ccc(S(=O)(=O)c2nc(-c3ccco3)oc2SC(C)c2ccccc2)cc1` (configuration not stated) yielded an inhibition of -2.47%. Work on `CCC(=O)N1c2ccc(S(=O)(=O)NCc3cccc(OC)c3)cc2CC1C` (configuration not stated) yielded an inhibition of 4.16%. For `Cc1ccc(CSCC(=O)N2CCCC2)cc1`, the inhibition was active: 32.8%. For `CCCCN(CC)CCNC(=O)c1cc2c(-c3ccc(Cl)cc3)nn(C)c2s1`, the inhibition was active: 71.8%. `COc1cc(NC(=O)CCc2c(C)nc3nc(-c4cc(OC)cc(OC)c4)nn3c2C)cc(OC)c1` gave an inhibition of 14.7%. Work on `Cc1nc2ccccc2n1CC(O)COc1ccc(C(=O)O)cc1` (configuration not stated) yielded an inhibition of -3.8%. `Cc1ccc(C(=O)N2CCC(c3c[nH]c4ccccc34)(c3c[nH]c4ccccc34)CC2)cc1` gave an inhibition of 8.04%. With `Cn1nccc1C(=O)NCc1ccc2c(c1)CCN2C(=O)c1ccc(F)cc1` the inhibition was -24%. `CC1CCN(CC[C@H]2CCCN2S(=O)(=O)c2cccc(O)c2)CC1` was tested, and the inhibition was active: 34.3%. In the case of `COc1cccc(CNC(=O)c2ccc(Cn3c(SCc4ccccc4)nc4cccnc43)cc2)c1`, the inhibition was 7.59%. Work on `COc1ccc(OC)c(-c2cc(C(=O)Nc3cccc(Cl)c3C)no2)c1` yielded an inhibition of -17.3%.
